These results are taken from PMC10445733.

By UniProt entry, the sequences of proteins in these tests, tags left out.
UniProt Q8NEZ2: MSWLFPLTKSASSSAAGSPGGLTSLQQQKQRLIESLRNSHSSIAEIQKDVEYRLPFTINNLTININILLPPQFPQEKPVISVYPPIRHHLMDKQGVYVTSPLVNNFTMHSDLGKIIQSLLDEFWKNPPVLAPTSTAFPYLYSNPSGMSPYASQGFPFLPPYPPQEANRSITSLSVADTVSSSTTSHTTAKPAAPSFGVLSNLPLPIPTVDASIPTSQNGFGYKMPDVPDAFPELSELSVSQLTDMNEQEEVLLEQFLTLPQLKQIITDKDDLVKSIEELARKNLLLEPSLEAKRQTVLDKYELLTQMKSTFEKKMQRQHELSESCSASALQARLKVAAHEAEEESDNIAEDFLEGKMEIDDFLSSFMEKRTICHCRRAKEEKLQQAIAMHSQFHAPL
UniProt A5D8V6: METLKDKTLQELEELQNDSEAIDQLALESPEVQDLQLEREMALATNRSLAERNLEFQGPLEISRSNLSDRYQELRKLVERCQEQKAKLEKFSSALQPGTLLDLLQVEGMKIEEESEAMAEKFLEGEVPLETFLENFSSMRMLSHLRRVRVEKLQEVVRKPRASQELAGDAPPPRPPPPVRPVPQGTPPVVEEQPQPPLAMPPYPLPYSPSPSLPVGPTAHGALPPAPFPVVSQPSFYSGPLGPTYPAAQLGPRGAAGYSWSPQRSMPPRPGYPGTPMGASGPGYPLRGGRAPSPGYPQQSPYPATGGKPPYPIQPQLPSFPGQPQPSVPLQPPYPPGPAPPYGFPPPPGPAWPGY
UniProt C9J7I0: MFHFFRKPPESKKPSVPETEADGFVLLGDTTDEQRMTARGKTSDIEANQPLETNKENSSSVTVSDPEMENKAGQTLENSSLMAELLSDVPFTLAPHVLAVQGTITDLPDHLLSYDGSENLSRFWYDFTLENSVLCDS

One assay concerns the target GST–TSG101 (UniProt Q99816). As to the kind of experiment: pull-down; 293T cells co-transfected with GST–TSG101, Myc–VPS28, HA–UMAD1 (wild type or mutant) and one HA-tagged VPS37 subunit; lysate on glutathione–Sepharose beads 3 h at 4°C (50 mM Tris-HCl pH 7.4, 150 mM NaCl, 5 mM EDTA, 5% glycerol, Triton X-100); anti-HA blot; unfused GST as control.
A further assay concerns the target HA–VPS37A (UniProt Q8NEZ2). The description is as above.
For a further assay, the target named is HA–VPS37B (UniProt Q9H9H4). The assay is described as above.
The next assay addresses HA–VPS37C (UniProt A5D8V6). The assay is described as above.
For a further assay, the target named is T1, HA–VPS37D (UniProt Q86XT2).
T1 sequence: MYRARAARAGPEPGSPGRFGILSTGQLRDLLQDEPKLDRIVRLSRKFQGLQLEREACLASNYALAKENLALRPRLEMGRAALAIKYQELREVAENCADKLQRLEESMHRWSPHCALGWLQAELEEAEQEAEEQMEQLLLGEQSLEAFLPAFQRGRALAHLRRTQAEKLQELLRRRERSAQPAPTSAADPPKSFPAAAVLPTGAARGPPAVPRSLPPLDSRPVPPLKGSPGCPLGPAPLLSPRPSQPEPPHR
The description is as above.

Another assay has as its target YFP–UMAD1 (human) (UniProt C9J7I0). Briefly: co-IP; GFP-trap magnetic agarose on lysates of HeLa cells stably expressing a YFP-tagged bait (YFP–TSG101 in HeLa^WT or HeLa^ΔUMAD1; YFP–UMAD1 in HeLa^ΔUMAD1), >12 h at 4°C; western blot for endogenous proteins; unfused YFP as control. In general terms: A western blot detects proteins with antibodies after separation by electrophoresis.

The target of another assay is YFP–VPS37A (UniProt Q8NEZ2). The description is as above.
Another assay has as its target YFP–VPS37C (UniProt A5D8V6). Described as above.
Another assay concerns the target YFP–TSG101 (UniProt Q99816). The assay is described as above.
The next assay deals with YFP–VPS37B (UniProt Q9H9H4). Described as above.

Results are given in words; binding and its absence hold for the method and conditions named. Binding seen in cells or lysates may run through a third protein. Some results given as binding are weak or reduced against the parent protein; the word gives no strength. For some of these results: Where a sequence is shown, tags or fusion partners need not be part of it.

For HA–UMAD1 (from UniProt C9J7I0 1-137), the binding result is “binds” with GST–TSG101; “no binding” with HA–VPS37A; “binds” with HA–VPS37B; “binds” with HA–VPS37C; “binds weakly” in the assay with HA–VPS37D.
As to “endogenous TSG101 (from UniProt Q99816 1-390)”, the binding entry with YFP–UMAD1 (human), with YFP–VPS37A and with YFP–VPS37C was “binds” in each case.
Turning to “endogenous UMAD1 (from UniProt C9J7I0 1-137)”, the binding result with YFP–TSG101, with YFP–VPS37B and with YFP–VPS37C was “binds” each time.
With “endogenous VPS37A (from UniProt Q8NEZ2 1-397)”, the binding entry with YFP–UMAD1 (human) is “no binding”.
“endogenous VPS37C (from UniProt A5D8V6 1-355)”: the binding entry with YFP–UMAD1 (human) is on record as “binds”.
